This is an account of results in the RNAGym collection of RNA variant scans (doi:10.7554/elife.90254).

Read counts are not given, so values of variants with three or more changes are uncertain.

First the molecules themselves.
B1: OR4K15 (parent)
chain: GUUAACGGUCAUAGGCCAUGGAAACUAGGAGCACCAUUUCGCUGCCAGUGAAGAAAUGAACAAAGAAAAUCUGGGCCAGGCAGGCAUCAAAAGAAAUAGUCUUGCGCUCAACCAGAAAGUCUGUAAUCAUUUUAAGGGUA

In this data set the parent is B1. As to the kind of experiment: self-cleavage, relative activity (ratio to wild type); higher = more cleavage; in vitro, sequencing; the parent is a self-cleaving ribozyme.
For the variant GUUAACGGUCAUAGGCCAUGGAAACUAGGAGCACCAUUUCGCUGCCAGUGAAGAAAUGAACAAAGAAAAUCUGGGCCAGGCAGGCAUCAAAAGAAAUAGUCAUGCGCUCAACCAGGAAGUCUGUAAUCACUCUAAGGGUA, the self-cleavage is 0.02.

Consider GUUAACGGUCAUAGGCCAUGGAAACUAGGAGCACCAUUUCGCUGCCAGUGAAGAAAUGAACAAAGAAAAUCUGGGCCAGGCAGGCAUCAAAAGAAAUAGUCUCGCGCUCAUCCAGAAAGACUGUAAUCAUUUUAAGGGUA, for which the self-cleavage was found to be 0.08.

With GUUAACGGUCAUAGGCCAUGGAAACUAGGAGCACCAUUUCGCUGCCAGUGAAGAAAUGAACAAAGAAAAUCUGGGCCAGGCAGGCAUCAAAAGAAAUAGUCCUGCGCUCAACCAGAACGCCUGUAAUCAUUUUAAGGGUA, the self-cleavage turned out to be 0.6.

For GUUAACGGUCAUAGGCCAUGGAAACUAGGAGCACCAUUUCGCUGCCAGUGAAGAAAUGAACAAAGAAAAUCUGGGCCAGGCAGGCAUCAAAAGAAAUAGCCUUGCGCUCAUCCAGAGAGUCUGUAAUUAUUUUAAGGGUA, the self-cleavage worked out at 0.13.

On to GUUAACGGUCAUAGGCCAUGGAAACUAGGAGCACCAUUUCGCUGCCAGUGAAGAAAUGAACAAAGAAAAUCUGGGCCAGGCAGGCAUCAAAAGAAAUAGUCUCGCGCUCAACCAGAAAGUCUUUAAUCAUUUUAAGGGUG, for which the self-cleavage came out at 1.79.

As to GUUAACGGUCAUAGGCCAUGGAAACUAGGAGCACCAUUUCGCUGCCAGUGAAGAAAUGAACAAAGAAAAUCUGGGCCAGGCAGGCAUCAAAAGAAAUAGUCCUGCGCUCGACCAGAAAGUCUGUAAUCAUUUUGAGGGUA, the self-cleavage is 0.14.

Regarding GUUAACGGUCAUAGGCCAUGGAAACUAGGAGCACCAUUUCGCUGCCAGUGAAGAAAUGAACAAAGAAAAUCUGGGCCAGGCAGGCAUCAAAAGAAAUAGUCCUGCGCUCAACCUGAAAGUCUGUAGUCAUUUUAAGGGUA, the self-cleavage worked out at 0.04.

With GUUAACGGUCAUAGGCCAUGGAAACUAGGAGCACCAUUUCGCUGCCAGUGAAGAAAUGAACAAAGAAAAUCUGGGCCAGGCAGGCAUCAAAAGAAAUAGACUUGCGCUCAACCAGGUAGUCUGUAAUCAUUUUAAGGGUG, the self-cleavage amounted to 0.42.

Regarding GUUAACGGUCAUAGGCCAUGGAAACUAGGAGCACCAUUUCGCUGCCAGUGAAGAAAUGAACAAAGAAAAUCUGGGCCAGGCAGGCAUCAAAAGAAAUAGUCCUGCGCUCAACCUGAAAGUCUGCAAUCAUUUUAAGGGUA, the self-cleavage was determined as 0.02.

With GUUAACGGUCAUAGGCCAUGGAAACUAGGAGCACCAUUUCGCUGCCAGUGAAGAAAUGAACAAAGAAAAUCUGGGCCAGGCAGGCAUCAAAAGAAAUAGUCCUGCGCUCAACCAGAAAGUCUGUAAUCGUUUUAAGGUUA, the self-cleavage was 1.82.

As for GUUAACGGUCAUAGGCCAUGGAAACUAGGAGCACCAUUUCGCUGCCAGUGAAGAAAUGAACAAAGAAAAUCUGGGCCAGGCAGGCAUCAAAAGAAAUAGUCCUGCGCCCAACCAGAAAGUCUGUAAUCAUUUUAAGGGUG, the self-cleavage amounted to 0.

Regarding GUUAACGGUCAUAGGCCAUGGAAACUAGGAGCACCAUUUCGCUGCCAGUGAAGAAAUGAACAAAGAAAAUCUGGGCCAGGCAGGCAUCAAAAGAAAUAGUCUUGAGCUCAACCAGAAAGUCUGUAAUCAUUUUGAAGGUA, the self-cleavage was determined as 0.02.

With GUUAACGGUCAUAGGCCAUGGAAACUAGGAGCACCAUUUCGCUGCCAGUGAAGAAAUGAACAAAGAAAAUCUGGGCCAGGCAGGCAUCAAAAGAAAUAGUCAUGCGCUCAACCAGAAAGUCUGUAAUCAUCUUAAGGGUU, the self-cleavage is 0.65.

With GUUAACGGUCAUAGGCCAUGGAAACUAGGAGCACCAUUUCGCUGCCAGUGAAGAAAUGAACAAAGAAAAUCUGGGCCAGGCAGGCAUCAAAAGAAAUAGGCUUGCGCCCAACCAGAAAGUCUGUAAUCAUUUUGAGGGUA, the self-cleavage was 0.01.

As for GUUAACGGUCAUAGGCCAUGGAAACUAGGAGCACCAUUUCGCUGCCAGUGAAGAAAUGAACAAAGAAAAUCUGGGCCAGGCAGGCAUCAAAAGAAAUAGUCUCGCGCUCAACCAGAAAGUCCGUAACCAUUUUAAGGGUA, the self-cleavage came out at 0.21.

On to GUUAACGGUCAUAGGCCAUGGAAACUAGGAGCACCAUUUCGCUGCCAGUGAAGAAAUGAACAAAGAAAAUCUGGGCCAGGCAGGCAUCAAAAGAAAUAGACUUGCGCUCGACCAGAAAGUCUGUGAUCAUUUUAAGGGUA, for which the self-cleavage turned out to be 0.09.

As to GUUAACGGUCAUAGGCCAUGGAAACUAGGAGCACCAUUUCGCUGCCAGUGAAGAAAUGAACAAAGAAAAUCUGGGCCAGGCAGGCAUCAAAAGAAAUAGUCUUGGGUUCAACCAGGAAGUCUGUAAUCAUUUUAAGGGUA, the self-cleavage came out at 0.01.

As for GUUAACGGUCAUAGGCCAUGGAAACUAGGAGCACCAUUUCGCUGCCAGUGAAGAAAUGAACAAAGAAAAUCUGGGCCAGGCAGGCAUCAAAAGAAAUAGCCUUGCGCUCGUCCAGAAAGACUGUAAUCAUCCUAAGGGUA, the self-cleavage was found to be 0.

As for GUUAACGGUCAUAGGCCAUGGAAACUAGGAGCACCAUUUCGCUGCCAGUGAAGAAAUGAACAAAGAAAAUCUGGGCCAGGCAGGCAUCAAAAGAAAUAGCCUUGCGCUUAACCAGAAGGUCUGUAGUCAUUUUAAGGGUA, the self-cleavage amounted to 0.34.

In the case of GUUAACGGUCAUAGGCCAUGGAAACUAGGAGCACCAUUUCGCUGCCAGUGAAGAAAUGAACAAAGAAAAUCUGGGCCAGGCAGGCAUCAAAAGAAAUAAUCUUGCGCUCAACCAGAAAGUCCGUAAUCGUUUUAAGGGUA, the self-cleavage was found to be 0.14.
